PubChem BioAssay AID1240 (Sanford-Burnham Center for Chemical Genomics, 2008)
In all, about 50,000 compounds went through this assay and about 800 (1.6%) showed an effect of 50% or more. The list shows a part of the results.

Molecular target: Bcl-2-like protein 10 (Homo sapiens) (UniProt Q9HD36)
Assay: Phenotype converters, Bcl-B/TR3 peptide binding displacement, primary biochemical FP (AID 1240);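 further: 0% = Bcl-B with tracer peptide and DMSO and 100% = tracer peptide lacking Bcl-B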
Conditions: GST-Bcl-B / FITC-TR3 peptide fluorescence polarization; stronger effect = higher value; compound at 3.75 mg/L

Sequence of UniProt Q9HD36 (Q9HD36 whole entry, looked up): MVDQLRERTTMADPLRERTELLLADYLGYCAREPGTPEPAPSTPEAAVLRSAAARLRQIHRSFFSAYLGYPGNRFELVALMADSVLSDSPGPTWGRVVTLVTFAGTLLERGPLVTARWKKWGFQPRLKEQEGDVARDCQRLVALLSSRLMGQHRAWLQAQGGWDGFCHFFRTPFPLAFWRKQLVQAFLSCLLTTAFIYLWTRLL

| Compound | displacement [%] |
| --- | --- |
| O=S(=O)(O)c1ccc(NS(=O)(=O)c2cccc3cccnc23)cc1 | 23 |
| Cc1ccc(NC2=CC(c3ccc4c(c3)OCO4)N(c3ccc(C)cc3)C2=O)cc1 (stereo unspecified) | 19.1 |
| COc1ccc(N2C(=O)C(Cl)=C(Nc3ccccc3F)C2=O)cc1 | -5 |
| COc1cc2c(cc1NC(=O)c1ccccc1[N+](=O)[O-])oc1ccccc12 | 0.9 |
| Cc1ccc(C)c(NCc2cccnc2)c1 | 3.2 |
| O=C(NCc1cccs1)c1nn2c(C(F)(F)F)cc(-c3ccco3)nc2c1Cl | -11.6 |
| CCOC(=O)c1c(-c2ccccc2)csc1NC(=O)c1ccc(C)cc1 | -5.7 |
| COc1ccccc1Nc1nc(N2CCOCC2)ncc1F | 6.7 |
| CCCC(=O)Nc1ccc(O)c(-c2nc3cc(C)ccc3o2)c1 | 10.6 |
| CC(=O)Nc1ccc(NS(=O)(=O)c2cccc([N+](=O)[O-])c2)cc1 | 12 |
| NC1=NC(=O)/C(=C/c2ccc(Cl)cc2)S1 | 57.4 |
| CC(C)CN1C(=O)c2ccc(C(=O)Nc3ccccc3O)cc2C1=O | 14.5 |
| Cc1ccc(S(=O)(=O)NCCNc2ccc([N+](=O)[O-])cc2Cl)cc1 | 10.7 |
| COC(=O)c1c(NC(=O)CC2SC(N)=NC2=O)sc2c1CCCC2 (stereo unspecified) | -19.7 |
| CCOC(=O)C1=C(C)NC2=C(C(=O)c3ccccc32)C1c1ccc(OC)c(OC)c1 (stereo unspecified) | 0.7 |
| O=C1C=CC(=O)N1c1cccc(Cl)c1 | 16.4 |
| O=[N+]([O-])c1ccc(-c2ccc(C(=S)N3CCCCC3)o2)cc1 | 6.6 |
| CCCCC1CCC(C(=O)Nc2nc3ccccc3n2C)CC1 (stereo unspecified) | -9.1 |
| COc1ccc(N2C(=O)/C(=C\c3ccc(-c4ccccc4Cl)o3)SC2=S)cc1 | 15.9 |

| Compound | displacement [%] |
| --- | --- |
| O=C(Cc1ccccc1)Nc1ccc2c(c1)oc1ccccc12 | -4 |
| C#CCOc1nc(OCC#C)nc(OCC#C)n1 | 13.9 |
| CC1=C(C(=O)Nc2ccccc2)C(c2cccs2)C(C#N)=C(SCC(=O)c2ccc(F)cc2)N1 (stereo unspecified) | 7.2 |
| O=C1SC(Nc2ccc(-c3ccccc3)cc2)C(=O)N1c1ccccc1 (stereo unspecified) | -3.2 |
| COc1ccccc1CC(=O)N1CCN(c2cccc(Cl)c2)CC1 | -1.8 |
| O=C(NC(=S)N1CCOCC1)c1ccc(Br)cc1 | 5.8 |
| CC1=NN(c2ccccc2)C(=O)/C1=C/c1cccc(OC2CSC2)c1 | 7 |
| Cc1c(Cl)cccc1NC(=O)Cn1cnc([N+](=O)[O-])n1 | 11.8 |
| Cn1cccc1CN1CCN(C(=O)c2cccs2)CC1 | -2.6 |
| CCN(CC)CN1C(=O)C(=O)/C(=C(\O)c2ccc(Cl)cc2)C1c1ccccc1F (stereo unspecified) | -3.3 |
| O=C(Nc1ncc(Cc2ccc(Cl)cc2Cl)s1)c1ccc([N+](=O)[O-])cc1 | 3.4 |
| CCN(CC)c1ccc(Nc2nc(-c3c(C)nc4sccn34)cs2)cc1 | -16.4 |
| COc1ccccc1OCCOc1ccccc1/C=C1/SC(=S)N(C)C1=O | 24.9 |
| CCN(CC)C(=O)CSc1nc2ccccc2s1 | -4.5 |
| O=C(CSc1nnnn1-c1ccccc1)Nc1ccccc1 | -0.3 |
| Cc1ccccc1OCC(=O)Nc1ccc(Cl)cc1C(F)(F)F | 9.2 |
| O=C(O)C1CCCCC1C(=O)Nc1cccnc1 (stereo unspecified) | -11.6 |
| O=C(N/N=C\c1cc([N+](=O)[O-])ccc1N1CCOCC1)c1ccccn1 | -17.6 |
| CCOc1ccc(N2C(=O)CC(NCc3ccc(S(N)(=O)=O)cc3)C2=O)cc1 (stereo unspecified) | 1.8 |

| Compound | displacement [%] |
| --- | --- |
| N#Cc1c(N)nc2sc(C(=O)Nc3ccccc3)c(N)c2c1-c1ccco1 | 6.5 |
| COc1ccc(C2/C(=C(\O)c3ccc(Cl)cc3)C(=O)C(=O)N2CCCn2ccnc2)cc1 (stereo unspecified) | 0.8 |
| COC(=O)C1=C(C(=O)OC)N(c2ccccc2)/C(=C2/C(=S)C(C)(C)Nc3ccccc32)S1 | 8.3 |
| COC(=O)c1ccc(NC(=O)c2ccc(OC)cc2)cc1 | -1.9 |
| O=C(COC(=O)c1cc2ccccc2o1)c1ccccc1 | -13.5 |
| CCOC(=O)c1c(C)nc2ccc(Cl)cn12 | 4.5 |
| CCCCNC(=O)c1nn2cc(Br)cnc2c1Br | -5.4 |
| CCCCNCCCCOc1cccc(OC)c1 | 4.8 |
| O=c1oc(-c2ccccc2)nc2c1cnn2-c1ccccc1 | 3.9 |
| Cc1ccc(NC(=O)c2c(NC(=O)C(F)(F)F)sc3c2CCC3)c(C)c1 | -9.2 |
| O=c1c2ccccc2[nH]c(=S)n1Cc1ccccc1 | -8.4 |
| COc1cc(/C=c2\sc3nc4c(C)cccc4n3c2=O)ccc1O | 29.5 |
| Cn1cc(/C=C2/SC(=O)N(c3ccccc3)C2=O)c2ccccc21 | 14.8 |
| Cc1ccc(C(C)C)c(OCC(O)CN2CCCCCC2)c1 (stereo unspecified) | -10.1 |
| CC(/C=C/c1ccc2c(c1)OCO2)=N/NC(=O)COc1ccc(C)cc1 | 9.6 |
| O=C(NCCc1cccc(C(F)(F)F)c1)C(=O)Nc1ccccc1F | -14.7 |
| COc1ccc2c(C)c(Cl)c(=O)oc2c1 | 13.4 |
| COc1ccc(OC)c(NC(=O)COc2c(C)cccc2C)c1 | 8.2 |
